According to PMC4336329 (PLoS ONE, 2015):
Screen size: about 310,000 compounds; about 14,000 (4.5%) showed an effect of 50% or more. Effects have a minus sign here. The list shows a part of the results.

Target: human ether-à-go-go-related gene (hERG) potassium channel (human, UniProt Q12809)
Assay: primary screen, population patch clamp on CHO cells stably expressing hERG
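Also: peak tail current of the secondary pulse compared with the same well before compound.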

human ether-à-go-go-related gene (hERG) potassium channel, sequence (Q12809 whole entry, looked up): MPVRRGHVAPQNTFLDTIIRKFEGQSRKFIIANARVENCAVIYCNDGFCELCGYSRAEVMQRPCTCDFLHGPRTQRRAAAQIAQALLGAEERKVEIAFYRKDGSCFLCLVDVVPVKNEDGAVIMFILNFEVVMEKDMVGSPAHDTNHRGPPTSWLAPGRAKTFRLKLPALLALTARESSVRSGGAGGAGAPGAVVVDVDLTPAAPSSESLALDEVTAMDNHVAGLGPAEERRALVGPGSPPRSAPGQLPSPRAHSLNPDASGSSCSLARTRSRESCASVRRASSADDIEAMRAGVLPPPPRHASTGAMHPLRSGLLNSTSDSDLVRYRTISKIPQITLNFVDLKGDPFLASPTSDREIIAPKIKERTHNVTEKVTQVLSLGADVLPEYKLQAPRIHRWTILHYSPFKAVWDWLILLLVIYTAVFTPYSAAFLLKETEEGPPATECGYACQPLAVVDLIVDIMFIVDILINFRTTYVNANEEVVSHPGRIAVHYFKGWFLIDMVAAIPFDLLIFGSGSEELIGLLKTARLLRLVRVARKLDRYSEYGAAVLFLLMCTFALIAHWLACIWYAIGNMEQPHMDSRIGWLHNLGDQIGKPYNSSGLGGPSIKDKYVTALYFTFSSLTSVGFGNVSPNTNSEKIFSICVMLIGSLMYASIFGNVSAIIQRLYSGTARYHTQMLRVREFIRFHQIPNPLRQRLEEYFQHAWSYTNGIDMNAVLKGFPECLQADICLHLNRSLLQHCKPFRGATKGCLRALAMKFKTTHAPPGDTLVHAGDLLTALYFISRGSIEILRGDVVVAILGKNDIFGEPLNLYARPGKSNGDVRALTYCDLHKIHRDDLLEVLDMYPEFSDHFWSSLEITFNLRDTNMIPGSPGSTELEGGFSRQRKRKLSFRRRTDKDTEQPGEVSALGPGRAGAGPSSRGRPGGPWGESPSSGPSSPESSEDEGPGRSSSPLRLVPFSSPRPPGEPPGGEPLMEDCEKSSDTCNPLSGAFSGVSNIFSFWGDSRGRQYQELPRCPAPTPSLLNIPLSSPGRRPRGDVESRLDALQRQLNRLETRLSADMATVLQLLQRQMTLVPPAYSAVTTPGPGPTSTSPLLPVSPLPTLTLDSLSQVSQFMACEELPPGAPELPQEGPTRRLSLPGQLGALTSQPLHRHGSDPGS

| Compound | hERG current change (%, negative = inhibition) at 10uM |
| --- | --- |
| Cc1cccc(NC(=O)/C(C#N)=C/c2ccccc2Cl)n1 | 28.4% |
| CCSc1cnc(-c2ccccc2)n1CC.Cl | -1.31% |
| Cc1cc(C(C)(C)C)cc(S(=O)(=O)Nc2cccc(C(=O)O)c2)c1C | -4.31% |
| COc1ccc(NC(=S)NNC(=O)c2nnn(-c3ccccc3)c2C)cc1 | 6.6% |
| COC(=O)c1ccc(OC)c(NS(=O)(=O)c2ccc(-n3cnnn3)cc2)c1 | -20.9% |
| COc1ccc(CN2CCC(C(=O)N3CCCC(C)C3)CC2)cc1OC.O=C(O)C(=O)O (stereo not shown) | -19.2% |
| CN1C(=S)SC(/[N+]([O-])=C\c2ccccc2F)C1(C)C (stereo not shown) | 2.37% |
| CCOC(=O)N1CCN(C(=O)c2cc3c(s2)-c2ccc(Cl)cc2S(=O)(=O)C3)CC1 | -66.5% |
| CC(NS(=O)(=O)c1ccc2c(c1)c(=O)n(C)c(=O)n2C)C(=O)NC1CCCCC1 (stereo not shown) | 7.02% |
| S=c1[nH]nc(-c2ccco2)n1-c1cccc2ccccc12 | 11.7% |
| COC(=O)c1nn(-c2ccc(OC)cc2)c(=O)c2c(N)sc(C)c12 | -5.54% |
| CCOC(=O)/C(=C\c1cn(C)c2ccccc12)[N+](=O)[O-] | 12.9% |
| O=S(=O)(NC1CCCCC1N1CCN(c2ccc(F)cc2)CC1)c1ccc(Cl)cc1 (stereo not shown) | -22.6% |
| C/C(=N\Nc1ccc(Cl)c(C(=O)O)c1)c1cccs1 | 0.835% |
| COc1ccc(NC(=O)CCNS(=O)(=O)c2cccc3nonc23)c(OC)c1 | -3.51% |
| CN1CCN(c2ccc(NC(=O)COc3ccc(Cl)cc3Cl)cc2)CC1 | -8.64% |
| COc1ccc(/C=N/NC(=O)c2cccc([N+](=O)[O-])c2)cc1OC(=O)c1ccccc1 | 5.66% |
| O=C(Cn1cnc2c(nnn2Cc2ccc(F)cc2)c1=O)NCc1ccc(F)cc1 | 20.6% |
| COc1ccccc1/C=C/C(=O)NCC(=O)N/N=C(/C)c1ccc(Cl)cc1 | 0.591% |
| O=C(Cc1cccs1)Nc1ccc(N2CCOCC2)cc1 | 14.6% |
| CC(C)c1ccc(NC(=O)c2cc([N+](=O)[O-])ccc2N2CCOCC2)cc1 | -30.8% |
| O=C(COc1ccccc1)Nc1ccc(Cl)cc1C(=O)c1ccccc1 | 6.83% |
| COc1ccccc1C(=O)N1CC(=O)Nc2ccc(C)cc2C1c1ccc(F)cc1 (stereo not shown) | -38.6% |
| CS(=O)(=O)c1ccc(Cl)c(NC(=O)COC(=O)CCN=C2NS(=O)(=O)c3ccccc32)c1 | -25.2% |
| Cc1ccc(S(=O)(=O)N(C)CC(=O)NCC(c2ccco2)N(C)C)cc1 (stereo not shown) | -8.64% |
| Cc1cc2cc3c(cc2nc1SCc1ccccn1)OCCO3 | 5.43% |
| COc1ccc(-c2c(C#N)c(N)n(N)c(=O)c2C#N)cc1Cl | 20.5% |
| CCc1ccccc1S(=O)(=O)Cc1ccc(C(=O)N2CCN(c3ccccc3OC)CC2)o1 | -22.1% |

| Compound | hERG current change (%, negative = inhibition) at 10uM |
| --- | --- |
| CCOC(=O)c1[nH]c(CSc2nnc(-c3ccncc3)n2CCOC)c(C(=O)OCC)c1C | -26.6% |
| COc1cccc(CN(CC(=O)NCc2ccccc2)S(=O)(=O)CCl)c1 | -16.8% |
| N#Cc1c(N)nc(SC2CCCCC2=O)c(C#N)c1-c1ccco1 (stereo not shown) | -2.9% |
| COc1ccc(N(CC(=O)N2CCN(c3cccc(C)c3C)CC2)S(=O)(=O)c2c(C)noc2C)cc1 | 15.1% |
| O=C(COC(=O)CNC(=O)C1CCCCC1)Nc1cccc(F)c1 | 6.69% |
| CCOC(=O)c1c(NC(=O)c2cc(-c3ccc(O)cc3)on2)sc(C(C)=O)c1C | 10.4% |
| COc1ccc(C(=O)NCC(=O)NCC(=O)OCC(=O)c2cccs2)cc1 | -1.84% |
| C=CCNC(=S)N/N=C(\C)c1ccc(-n2ccnc2)cc1 | -43% |
| CNC(C)c1cc(OC)ccc1OC (stereo not shown) | 18.8% |
| CCOC(=O)c1cnc(C(C)(C)C)[nH]c1=O | 9.4% |
| CC(=O)N1CCN(c2ccc(NC(=O)c3ccc4c(c3)OCO4)cc2)CC1 | -17.7% |
| N#CCCn1cc(/C=N/NC(=O)c2ccncc2)c(-c2ccccc2)n1 | -4.78% |
| CC1=C(C(=O)N2CCCC(CCC(=O)NCc3ccccc3F)C2)OCCO1 (stereo not shown) | 19.7% |
| Cc1nc(NC2CCCC2)sc1C(=O)N(C)C | 13.4% |
| Cc1ccc(NC(=O)CO/N=C/c2ccc(N(C)C)cc2)cc1 | 14.1% |
| CCCC(=O)Nc1c2c(nn1-c1cccc(C)c1C)CS(=O)(=O)C2 | -8.64% |
| COc1ccccc1N1CCN(C(=O)c2c(-c3ccccc3)noc2C)CC1 | -39.1% |
| O=C(O)CCCC(=O)NNC(=O)c1cccc(Br)c1 | 15.9% |
| CCCN1C2CCCC1CC(NC(=S)Nc1cccc(C)c1)C2 (stereo not shown) | -44.5% |
| S=C(NCc1ccco1)Nc1cc(Cl)c(Cl)cc1Cl | 10.8% |
| CCOC(=O)CSc1nnc2c3ccccc3n(C)c2n1 | -3.05% |
| COc1ccc(C(=S)NC2CCCCC2)cc1 | -22.2% |
| CC(=O)c1cccc(N(C(=O)c2csnn2)C(C(=O)NC2CCCC2)c2ccccc2)c1 (stereo not shown) | -18.5% |
| CC(C)CC(C(=O)NCC1CCCO1)N(C(=O)Cn1nnc(-c2ccc(F)cc2)n1)c1ccccc1F (stereo not shown) | -47% |
| O=C(c1ccc2oc(Cc3ccc(Cl)cc3)nc2c1)N1CCCCC1CCO (stereo not shown) | -15% |
| CCc1ccc(CN(C)C(=O)c2cc(COc3cccc4cnccc34)on2)cc1 | 1.05% |
| CC(C)C[C@@H](CO)N(Cc1ccccc1)S(=O)(=O)N(Cc1ccccc1)[C@H](CO)CC(C)C | 9.2% |
